# Test results from PMC4336329 (PLoS ONE, 2015).
# In all, about 310,000 compounds went through this assay and about 14,000 (4.5%) showed an effect of 50% or more. The effect is printed as a negative number. Some of the results follow.
# Target: human ether-à-go-go-related gene (hERG) potassium channel (human, UniProt Q12809)
# Test: primary screen, population patch clamp on CHO cells stably expressing hERG
# 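Also: peak tail current of the secondary pulse compared with the same well before compound.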
# Sequence of human ether-à-go-go-related gene (hERG) potassium channel (Q12809 whole entry, looked up): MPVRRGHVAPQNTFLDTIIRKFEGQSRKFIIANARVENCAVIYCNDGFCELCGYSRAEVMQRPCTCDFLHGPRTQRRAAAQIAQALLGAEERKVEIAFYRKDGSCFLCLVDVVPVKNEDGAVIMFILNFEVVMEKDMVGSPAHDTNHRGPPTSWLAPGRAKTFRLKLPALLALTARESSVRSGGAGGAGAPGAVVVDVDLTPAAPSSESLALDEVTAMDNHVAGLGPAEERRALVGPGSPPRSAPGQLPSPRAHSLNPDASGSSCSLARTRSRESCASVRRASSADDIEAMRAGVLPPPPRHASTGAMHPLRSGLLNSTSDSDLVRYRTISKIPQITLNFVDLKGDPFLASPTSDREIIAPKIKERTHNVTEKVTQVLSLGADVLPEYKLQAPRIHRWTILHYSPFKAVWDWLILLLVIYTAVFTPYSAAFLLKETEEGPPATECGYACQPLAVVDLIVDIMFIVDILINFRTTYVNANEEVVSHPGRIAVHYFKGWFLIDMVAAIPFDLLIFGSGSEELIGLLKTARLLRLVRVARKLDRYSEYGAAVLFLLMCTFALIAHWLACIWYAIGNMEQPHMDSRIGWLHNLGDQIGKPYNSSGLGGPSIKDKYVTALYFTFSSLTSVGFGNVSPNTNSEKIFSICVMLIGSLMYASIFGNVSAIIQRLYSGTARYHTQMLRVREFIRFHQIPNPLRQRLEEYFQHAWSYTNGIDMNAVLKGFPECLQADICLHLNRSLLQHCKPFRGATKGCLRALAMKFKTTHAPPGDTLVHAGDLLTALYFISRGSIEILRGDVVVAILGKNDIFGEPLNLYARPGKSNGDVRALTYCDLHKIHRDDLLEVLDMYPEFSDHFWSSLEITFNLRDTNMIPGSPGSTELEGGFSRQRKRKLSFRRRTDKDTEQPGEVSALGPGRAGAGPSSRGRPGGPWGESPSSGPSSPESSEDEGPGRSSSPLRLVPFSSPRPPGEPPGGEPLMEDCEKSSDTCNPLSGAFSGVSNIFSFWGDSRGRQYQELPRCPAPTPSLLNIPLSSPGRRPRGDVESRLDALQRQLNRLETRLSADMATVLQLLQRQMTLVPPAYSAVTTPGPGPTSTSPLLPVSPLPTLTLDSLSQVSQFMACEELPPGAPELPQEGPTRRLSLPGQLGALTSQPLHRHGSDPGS
row,SMILES,"hERG current change (%, negative = inhibition) at 10uM"
1,c1ccc(Oc2cccc3cccnc23)nc1,10.7%
2,Cc1cc(C(C)(C)C)cc(C)c1N.Cl,4.49%
3,CCOc1ccc(N2C(=O)CC(Sc3nc(C)cc(C)c3C#N)C2=O)cc1 (centres unmarked),10.5%
4,Cc1nn(CC(=O)NCCc2ccccc2)c(=O)c2cc3occc3n12,14.5%
5,COc1cc(NC(=O)C2CCCCC2)c(OC)cc1NC(=O)CCC(=O)NCc1ccco1,-22.8%
6,COC(=O)[C@H](CC(C)C)NS(=O)(=O)N(Cc1ccccc1)[C@@H](CC(C)C)C(=O)OC,1.72%
7,COc1ccc(CC(NC(C)=O)C(=O)NC2CCN(C(=O)Nc3ccc(C#N)cc3)CC2)cc1OC (centres unmarked),5.33%
8,O=C1CC[C@@H](CN(Cc2ccccn2)Cc2nc(Cc3cccc(C(F)(F)F)c3)no2)N1,-48.4%
9,CCS(=O)(=O)c1ccc2oc(Nc3ccccc3Cl)nc2c1,10.4%
10,COc1ccc(CCNC(=O)c2cc([N+](=O)[O-])ccc2N2CCOCC2)cc1,-33%
11,CCOc1cc(CNS(=O)(=O)c2cn(C)cn2)cc(OCC)c1OCC,27.4%
12,COc1cccc(CSc2nc3nc(C)cc(C)n3n2)c1,-4.72%
13,Cc1ccccc1OCC(=O)Nc1nc(C)c(C(=O)N(C)C)s1,2.53%
14,CCOC(=O)C1(Cc2cccc(OC)c2)CCCN(C(=O)c2cc(C)oc2C)C1 (centres unmarked),-6.37%
15,CN1CC2CCCC3(C1)C(=O)NC1(CCCCC1)N=C23 (centres unmarked),2.95%
16,Br.OCCn1c(-c2ccc(F)cc2)csc1=Nc1ccccc1,-31.4%
17,N#Cc1ccc(-c2ccccc2)nc1Sc1ccc(F)cc1,13.2%
18,Cc1ccc(NC(=O)CN(C)S(=O)(=O)c2ccc(Cl)s2)c(O)c1,2.29%
19,CC(C)CCNC(=O)C(c1ccncc1)N(Cc1cccs1)C(=O)Cn1nnc(-c2ccc(F)cc2)n1 (centres unmarked),-8.51%
20,CCc1c(C)sc(NC(=O)c2cc(C3CC3)on2)c1C#N,9.61%
21,Cc1ccc(/C=N/n2cnc3sc4c(c3c2=O)CCCC4)o1,-12.6%
22,Cc1ccc(-n2c(C)cc(=O)cc2C)cc1[N+](=O)[O-],26.3%
23,Cc1ccc(C)c(NC(=S)c2ccccn2)c1,18.9%

row,SMILES,"hERG current change (%, negative = inhibition) at 10uM"
1,CCCCSc1nnc(CCC)n1N,-2.49%
2,COC(=O)CNC(=O)Cn1cnc2sc(C)c(S(=O)(=O)N3CCC(C)CC3)c2c1=O,-2.53%
3,COC(=O)c1ccc2c(c1)S(=O)(=O)NC(=NCc1ccco1)S2,-23.8%
4,COc1ccccc1C(=O)n1nc(C)cc1C,6.01%
5,CCOC(=O)c1csc(NC(=O)c2cc3ccccc3o2)n1,3.91%
6,Cc1nc(Nc2ccccc2)sc1C(=O)c1ccc(F)cc1,15.9%
7,CCOc1ccc(CN2CCCC(N3CCN(c4ccc(OC)cc4)CC3)C2)cc1 (centres unmarked),-64%
8,CN1CCN(C(=O)c2ccccc2NC(=O)c2ccccc2)CC1,-22.5%
9,c1ccc(-c2nnc(C(c3ccccc3)c3ccccc3)o2)cc1,6.86%
10,CC(C)(Oc1ccc(Cl)cc1)C(=O)NCC(c1ccco1)N1CCCCC1 (centres unmarked),-20.2%
11,COc1ccc(C2(O)CC3CCC(C2)N3c2cc(C)nc(-c3ccccc3)n2)cc1 (centres unmarked),-17.7%
12,Cc1ccc(C(=O)Nc2ccc(C(=O)N3CCCCC3)cc2)o1,12.2%
13,O=C(Nc1cccc(F)c1)Nc1ccnn1C1CCN(C(=O)c2ccccn2)CC1,14.2%
14,Cc1ccc(S(=O)(=O)N2CCOCC2)cc1C(=O)OCC(=O)N(Cc1ccccc1)C(C)C,-14.5%
15,Cc1ccc(S(=O)(=O)N2CCN(C(=O)COC(=O)CCOc3ccccc3C)CC2)cc1,-15.4%
16,COc1ccccc1C(=O)Nc1ccnn1C1CCN(C/C=C/c2ccc(F)cc2)CC1,-76.6%
17,O=C(CCc1ccccc1Cl)Nc1cc2c(cc1C(=O)O)OCCCO2,22.4%
18,COc1ccc(-c2cc(C(=O)Nc3cc(C)nn3-c3ccccc3)no2)cc1,-4.63%
19,CC1(C)Cc2ccccc2-c2nc3n(c(=O)c21)CCS3,5.97%
20,C/C(=N\NC(=O)c1ccccc1O)c1ccc(Br)s1,11%
21,O=C(O)C(=O)O.c1ccc(-c2ccccc2OCCCN2CCCC2)cc1,-65%
22,O=C(CSc1cn(CC(=O)N2CCCCC2)c2ccccc12)NCC1CCCO1 (centres unmarked),0.31%
23,Cc1ccc(Cc2c(C)nc3nc(SCC(=O)NCc4ccco4)nn3c2C)cc1,-20.6%

row,SMILES,"hERG current change (%, negative = inhibition) at 10uM"
1,COc1ccc(CNC(=O)C2CCN(C(=O)c3ccco3)CC2)cc1,-5.58%
2,CC1(C)Cc2c(sc(NC(=O)c3ccccc3Cl)c2C(=O)O)CO1,15.8%
3,COc1cccc2cc(CC(=O)c3ccc(C)cc3C)c(=O)oc12,11.6%
4,O=C(CSc1nc2cc(Cl)ccc2c(=O)n1Cc1ccco1)Nc1ccc(S(=O)(=O)N2CCOCC2)cc1,-13.6%
5,COc1cc(OC)c(NC(=O)Cc2cccs2)cc1Cl,1.14%
6,Cc1ccc(C)c(NC(=O)CN(C)C(=O)c2ccc(S(=O)(=O)N(C)c3ccccc3)cc2)c1,-38.7%
7,COc1ccccc1N1C(=NC(=O)C2CCCCC2)SC2CS(=O)(=O)CC21 (centres unmarked),-31.4%
8,Fc1cccc(CNCCc2c[nH]c3ccccc23)c1.O=C(O)C(=O)O,-7.63%
9,CCOC(=O)c1snc(-c2ccc(F)cc2)c1N,9.56%
10,CC1CCCCC1NC(=O)CSc1nnc(COc2ccc(Cl)cc2)o1 (centres unmarked),0.225%
11,O=[N+]([O-])c1ccc2c(c1)nnn2-c1ccccc1,14.3%
12,CCCCn1c(SCC(=O)N2CCOCC2)nnc1-c1cccs1,-1.27%
13,O=C(O)C(=O)O.c1cc2c(cc1CCNC1CCCCCC1)OCO2,-17.6%
14,Cc1ccccc1NC(=O)COC(=O)CCc1nc2ccccc2c(=O)[nH]1,-3.53%
15,COc1cc(/C=N/NC(N)=S)ccc1OCC(=O)Nc1ccc(C)c(C)c1,-11.4%
16,Cc1ccc(C)c(Oc2ccc(S(=O)(=O)N3CCN(C)CC3)cn2)c1,-4.86%
17,CN(C)CCCNC(=S)N(CCN(C)C)Cc1cc2cc3c(cc2[nH]c1=O)OCCO3,13.9%
18,CCS(=O)(=O)c1nc(S(=O)(=O)c2ccc(C)cc2)c(NCCN2CCOCC2)s1,-9.86%
19,O=C(O)C1CCCCC1C(=O)Nc1ccc(Cl)cc1Cl (centres unmarked),-2.61%
20,COCCN(Cc1cccs1)S(=O)(=O)c1csc(C(N)=O)c1,-3.88%
21,CC(CC(=O)O)NCC1COc2ccccc2O1 (centres unmarked),18.5%
22,NCC(O)COCCC12CC3CC(CC(C3)C1)C2 (centres unmarked),-1.48%
23,COC(=O)c1ccccc1C(=O)N1CCOCCN(C(=O)c2ccccc2C(=O)OC)CCOCC1,0.0748%

row,SMILES,"hERG current change (%, negative = inhibition) at 10uM"
1,Cc1cnc(C(=O)Nc2cc(S(=O)(=O)N3CCOCC3)ccc2N2CCN(C)CC2)cn1,-18.6%
2,Br.Cc1ccc(C2Cc3cc(O)c(O)cc3CN2)cc1 (centres unmarked),11%
3,CCOc1ccc2nc(NCCNS(=O)(=O)c3ccccc3)c(C#N)cc2c1,8.37%
4,CC(C)(NC(=O)N1CCCC1)c1cccc(C(C)(C)NC(=O)N2CCCC2)c1,8.2%
5,CC(C)(C)c1ccc(C(=O)Nc2cccc(C(=O)N3CCOCC3)c2)cc1,-47.4%
6,O=C(COC(=O)c1cccc(Cl)c1)NC1CCCCCCC1,0.597%
7,Cc1cccc(CNC(=O)CCCn2nc(C)c3c(C)n(-c4ccccc4)nc3c2=O)c1,-16.4%
8,CN(CCc1ccccn1)C1CCCN(S(=O)(=O)c2ccccc2Cl)C1 (centres unmarked),-46.5%
9,CCCCN(Cc1cc2cc(C)ccc2[nH]c1=O)C(=O)c1ccccn1,1.23%
10,Cc1sc2nc(-c3ccccc3)[nH]c(=O)c2c1-c1ccccc1,9.43%
11,CCOC(=O)c1ccccc1-c1csc(N)n1,27.1%
12,CN(Cc1cccs1)C(=O)Cc1c[nH]c2ccccc12,-2.98%
13,O=S(=O)(c1ccccc1)c1nc(-c2ccco2)oc1N1CCCCC1,-37.1%
14,CCCN(CC(=O)Nc1ccccc1C)C(=O)c1cn2ccccc2n1,0.435%
15,CC(C)C(C)(C#N)NC(=O)CSc1nc2scc(-c3ccco3)c2c(=O)n1-c1ccccc1 (centres unmarked),3.05%
16,CCc1noc(C)c1C(=O)OCC(=O)c1ccccc1OC,-9.82%
17,Cc1cc(C)nc(SCC(=O)Oc2ccc3oc(=O)cc(C)c3c2)n1,-4.65%
18,N#C/C(=C\c1ccncc1)c1ccccn1,15%
19,CCOP(=O)(Cc1ccc(C(=O)CC)o1)OCC,12.9%
20,Cc1ccc(C)c2[nH]c(=O)c(CCNC(=O)c3cc4ccccc4o3)cc12,-0.302%
